The text below walks through data of the supplement of paper PMC11417369.

± gives the standard deviation of the averaged measurements. Some of the results follow.

The test relates to PfAP2-EXP AP2 domain (GST-tagged). In words: gcPBM binding intensity (ln(normalized median fluorescence intensity)); higher = stronger DNA binding. The gist of the method:
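Probes on an Agilent 4 × 180k array were primer-extended, double-stranded and 36 bp long, taken from intergenic genomic regions, with negative controls added. GST-tagged P. falciparum DNA-binding domains from E. coli, about 25 μg on average, were applied to the array for 1 h in 1× PBS containing 1% milk, 0.2 mg/ml BSA, 0.5% salmon testes DNA and 0.03% Triton X-100. Binding intensity, obtained after Alexa488 anti-GST antibody detection and a 488 nm scan, is the highest Masliner-normalised natural-log median intensity across replicate spots of either probe orientation.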
On to “GTTTAACTGTTTTATACACACAATGTATACAATAAA [CACACA_site2959]”, for which the “gcPBM binding intensity (ln)” value came to 8.73 ± 0.42.
“AATCTGATCTTTTAAAGTACACAAAAAAAAAAAAAA [XGTACX_site115]”: the “gcPBM binding intensity (ln)” value turned out to be 8.24 ± 0.56.
With “AGGTTATAAATAAATACACACATACAAAAATATGAC [CACACA_site4773]”, the “gcPBM binding intensity (ln)” value was found to be 8.74 ± 0.34.
For the sequence “AAAAAAAAAAAAAAAAGTACGTATCAAAGCATCAAA [XGTACX_site880]”, the “gcPBM binding intensity (ln)” value was determined as 8.79 ± 0.43.
Turning to “AATGAACACCTAAAATGTACGTACAAATATATTTTA [XGTACX_site7067]”, the “gcPBM binding intensity (ln)” value worked out at 8.83 ± 0.49.
For the sequence “TTTGAGTGCACATACACACAGACATACATTTAAATA [CACACA_site3403]”, the “gcPBM binding intensity (ln)” value is 9.52 ± 0.64.
Consider “AATGAATAAATAAACACACACACATATATAAATATG [CACACA_site6160]”, for which the “gcPBM binding intensity (ln)” value stood at 8.72 ± 0.51.
As for “AAAACAAACAGACACACACACATATATATATATATA [CACACA_site3655]”, the figure is 10.3 ± 0.21.
In the case of “ATGTTTAATTTTTTTTTGTCCCTATAGAAGTGTCAA [CACACA_negctrl_site1103]”, the “gcPBM binding intensity (ln)” value was determined as 8.56 ± 0.47.
Turning to “TTTAAAATTTTTTTTTTTTTTTTTTTTTTTTTTTAT [TGCATGCA_negctrl_site213]”, the “gcPBM binding intensity (ln)” value is 7.82 ± 0.34.
As to “ATATAAATATGTTCTGCACACAAATAAGTGTTTGAA [CACACA_site9291]”, the “gcPBM binding intensity (ln)” value was 8.44 ± 0.29.
On to “ATAACCTAATAATACACACACATGAATATATAGAAT [CACACA_site963]”, for which the “gcPBM binding intensity (ln)” value was found to be 8.69 ± 0.42.
On to “TAATATATATTATTATGTACATATATTGATTCCTTG [XGTACX_site6830]”, for which the “gcPBM binding intensity (ln)” value turned out to be 8.93 ± 0.38.
Turning to “TATTTATTAATATGTACACACATCAACCATATTAAC [CACACA_site7001]”, the “gcPBM binding intensity (ln)” value amounted to 8.77 ± 0.33.
Regarding “TTCTTATATATATACACACACAAAATATCTACAATG [CACACA_site736]”, the “gcPBM binding intensity (ln)” value came to 8.62 ± 0.51.
Turning to “CCAAAATACATTAAACGTACATGTCCTAATAAGATA [XGTACX_site21]”, the “gcPBM binding intensity (ln)” value came out at 8.81 ± 0.57.
Take “TTGTTTTTATAAATATTATTACAATGAAAAAAAAAA [TGCATGCA_negctrl_site185]”: the “gcPBM binding intensity (ln)” value came to 8.38 ± 0.59.
“TGTTTAATCACATGTTTGCACTTTCCTTTTGTAAAT [GTGCAC_site9893]”: the “gcPBM binding intensity (ln)” value was determined as 9.06 ± 0.39.
Turning to “AATTATTCTATATATTGTACATGTTTGTTTTTTTTT [XGTACX_site3130]”, the “gcPBM binding intensity (ln)” value is 8.82 ± 0.39.
For “ATATATAAATATATATGTACACACATATACATGTTG [XGTACX_site6653]”, the “gcPBM binding intensity (ln)” value amounted to 8.4 ± 0.26.
For “TGATTCTGTCATGGTGCACACCAGAACCATTATAAA [CACACA_site1965]”, the “gcPBM binding intensity (ln)” value came to 9.29 ± 0.61.
For “TCTTAAAATCGGAAATGAAATAAAGTTTACAATATG [TGCATGCA_negctrl_site553]”, the “gcPBM binding intensity (ln)” value came to 8.4 ± 0.38.
“TTTTCATTTATGTATATATTTATTTTGATTTAATGT [GTGCAC_negctrl_site607]”: the “gcPBM binding intensity (ln)” value is 8.31 ± 0.3.
For “AAAATTATAAATCTTGCACACAAAAAAAATAATAAA [CACACA_site8771]”, the “gcPBM binding intensity (ln)” value turned out to be 8.37 ± 0.38.
“TAAATATATTCAATCACACACATTCGTTTTTTTTTT [CACACA_site234]”: the “gcPBM binding intensity (ln)” value amounted to 8.54 ± 0.45.
“AATTATTTTATGTGAGGTACACCACACATGAAGGGG [XGTACX_site8450]”: the “gcPBM binding intensity (ln)” value was determined as 9.36 ± 0.44.
On to “TATTGTTATGTCGTTATTAACTTTCTTTAATTAATT [CACACA_negctrl_site174]”, for which the “gcPBM binding intensity (ln)” value amounted to 8.95 ± 0.29.
The value for “AAATATTCATAGTATACACACATTTATATATAATCA [CACACA_site771]” was 8.46 ± 0.4; that for “TGAAAGTTCAATAATTGTACATGTGGAAATTCATAC [XGTACX_site1378]” was 8.94 ± 0.28; that for “ATATTTCGTCTAAAAAGTACACAACAATAAAAAGTA [XGTACX_site6668]” was 8.96 ± 0.35.
As for “AAAAAACACAGACACACACACATATACATACATACA [CACACA_site2666]”, the figure is 9 ± 0.27; as for “TTAGGTTTATACACTACACACATTATTCATAAAAAA [CACACA_site871]”, 8.43 ± 0.37.
On to “TTTTTTAAATAATATTGTACAAAAAATGTATAAATA [XGTACX_site3010]”, for which the “gcPBM binding intensity (ln)” value came out at 8.49 ± 0.37.
Turning to “AAGTGTATACAGAAGAGTACAAACAATTTTTTTCTT [XGTACX_site7387]”, the “gcPBM binding intensity (ln)” value is 8.55 ± 0.54.
As for “TATATATATTTAAGGTGTACATAAATAACAAAATAT [XGTACX_site2641]”, the figure is 8.86 ± 0.4; as for “ATTTTTTTTTCTTTCGCACACGTGAAAGAATTTCTA [CACACA_site2052]”, 8.59 ± 0.3; as for “TTAAATTAAAACAAATGTACAAAGTGCATATTTTTT [XGTACX_site8143]”, 8.29 ± 0.31.
Regarding “ATAATTTAATACTAGTGTACAGAAAAAAAAAAAAAA [XGTACX_site6756]”, the “gcPBM binding intensity (ln)” value was found to be 8.55 ± 0.42.
As for “ATATTATATTATATAACACACATTTTTCATAACACT [CACACA_site407]”, the figure is 8.58 ± 0.45; as for “TGTTTAAATTTTTTGTTTTTTTTTTTATAAAGCAAA [TGCATGCA_negctrl_site313]”, 8.13 ± 0.3.
Turning to “ACATATATATATAAATATATATATATATAAATATAT [CACACA_negctrl_site895]”, the “gcPBM binding intensity (ln)” value is 8.355 ± 0.007.
As to “GTTGAACATAGATGCACACACATAAAATAAAAAAAA [CACACA_site5353]”, the “gcPBM binding intensity (ln)” value was 8.67 ± 0.58.
“TTGTTGTTATTTAAAACACACATCAATCATCTTAAC [CACACA_site1142]”: the “gcPBM binding intensity (ln)” value was found to be 8.3 ± 0.3.
For the sequence “TATATTTTTTTAAAAAGTACTTTGTATATATATATA [XGTACX_site1300]”, the “gcPBM binding intensity (ln)” value stood at 9.91 ± 0.15.
